A word on the Kd: it is a measure of binding affinity in units of concentration. A high value points to lower affinity. In general, koff refers to a measure of how fast the partners let go of each other. A high value points to a short-lived complex.

Assay [1] concerns the target T1, HMGB1(red), fully reduced form of full-length HMGB1 (HMGB1C23hC45hC106h) (rat, UniProt P63159 1-215, all cysteines reduced (C23h, C45h, C106h)).
T1 sequence: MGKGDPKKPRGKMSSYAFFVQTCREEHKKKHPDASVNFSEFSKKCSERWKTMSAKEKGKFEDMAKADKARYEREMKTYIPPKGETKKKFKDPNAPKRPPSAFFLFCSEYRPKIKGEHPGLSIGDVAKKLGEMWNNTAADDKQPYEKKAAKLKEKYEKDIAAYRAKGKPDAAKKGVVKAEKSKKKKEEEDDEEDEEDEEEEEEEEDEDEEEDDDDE
Description: cell-based or functional assay.

The target in assay [2] is T2, human serum albumin (HSA) (human, UniProt P02768 25-609).
T2 construct: Immobilized on sensor chips to capture ABD (PP013) fusions
Description: QCM (Attana A200); capture on immobilized HSA.

Assay [3] deals with T3, HMGB1(disulfide), disulfide linked form of full-length HMGB1 (HMGB1C23-C45C106h) (rat, UniProt P63159 1-215, disulfide C23-C45; C106 reduced).
T3 construct: unlabelled in Biacore and Attana; also called b-HMGB1(disulfide)
T3 sequence: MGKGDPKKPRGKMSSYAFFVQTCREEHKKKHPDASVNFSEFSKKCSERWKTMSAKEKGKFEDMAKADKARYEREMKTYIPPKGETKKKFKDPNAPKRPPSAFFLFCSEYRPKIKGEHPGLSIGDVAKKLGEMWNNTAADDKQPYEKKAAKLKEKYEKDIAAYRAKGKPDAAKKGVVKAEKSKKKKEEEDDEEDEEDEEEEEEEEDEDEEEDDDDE
As to the kind of experiment: QCM (Attana A200); polypeptide captured on HSA, HMGB1(disulfide) injected; 1:1 or 1:2 model, average KD. The protocol:
(§1) Binding analysis: The Attana A200® biosensor was used to characterize interactions between the dimeric polypeptides (SEQ ID NO:38-48) and HMGB1(red) under reducing conditions and/or HMGB1(disulfide) under non-reducing conditions. The monomeric ZA3812 (SEQ ID NO:35) was included for comparison. The experiment was performed as a capture assay, in which HSA was immobilized on Attana's sensor chip Low-NonSpecific-Binding (LNB). Immobilization was performed using amine coupling. The instrument has two sensor surfaces and HSA was immobilized on both surfaces. Around 110 Hz of HSA was stably immobilized on the surfaces.
(§2) In the kinetic experiment, HBS-EP+/−2 mM DTT was used as running buffer and the flow rate was 25 μl/min at 22° C. In each cycle, one polypeptide was tested against one concentration of HMGB1. […] The analyte HMGB1(reduced) was diluted in HBS-EP+2 mM DTT within a concentration range of 1.33 to 21.4 μg/ml, and the analyte HMGB1(disulfide) was diluted in HBS-EP buffer within a concentration range of 0.62 to 10 μg/ml. Both analytes were subsequently injected for 84 s over both channel A and B, where channel B was used as a blank surface for curve subtraction. Buffer injections were also made for surface subtractions. After dissociation, the surfaces were regenerated with a 30 s injection of 100 mM HCl followed by a 30 s injection of 20 mM NaOH. Data was collected by Attester Software and subsequently processed in the Evaluation Software. To calculate the kinetic parameters (kₐ and kd) and affinity constant (KD), the experimental data were fitted using a 1:1 or a 1:2 binding model.
(§3) Binding analysis of dimeric polypeptides targeting HMGB1: The interactions of a set of dimeric polypeptides, as well as one monomeric polypeptide, with HMGB1(reduced) and/or HMGB1(disulfide) were analyzed using an Attana A200® biosensor instrument by injecting various concentrations of HMGB1 over a surface containing captured polypeptides in fusion with ABD bound by immobilized HSA.

In assay [4] the target is T1, HMGB1(red), fully reduced form of …. As to the kind of experiment: QCM (Attana A200); polypeptide captured on HSA, HMGB1(red) injected, 2 mM DTT; 1:1 or 1:2 model, average KD. The protocol: as §1, §2, §3
Assay [5] has as its target T3, HMGB1(disulfide), disulfide linked form …. As to the kind of experiment: QCM (Attana A200); polypeptide captured on HSA, HMGB1(disulfide) injected; 1:1 or 1:2 model, relevant kd (most represented). The protocol: as §1, §2, §3
Assay [6] concerns the target T1, HMGB1(red), fully reduced form of …. Description: QCM (Attana A200); polypeptide captured on HSA, HMGB1(red) injected, 2 mM DTT; 1:1 or 1:2 model, relevant kd (most represented). The protocol:
as §1, §2, §3

The target is the same in assay [7]. As to the kind of experiment: SPR (Biacore 2000); target immobilized on CM5, His6-Z variant injected 50-1350 nM; 1:1 model. The protocol:
(§4) Binding analysis of mutated Z variants: A binding analysis was performed using a Biacore 2000 instrument. All alanine mutated Z variants, together with the original Z variant ZH 01, were analyzed against GST-boxA(red), HMGB1(red), boxA(disulfide) and HMGB1(disulfide). The immobilizations and Biacore analyses were performed essentially as described in Example 3. However, in these analyses, the different targets were directly coupled to separate flow cells of different CM5 chip surfaces and a flow rate of 30 μl/min was used. The ligand immobilization levels on the surfaces were 1410 RU for GST-boxA(red), 1380 RU for HMGB1(red), 540 RU for boxA(disulfide) and 2900 RU for HMGB1(disulfide). The analytes, i.e. the Z variants, were each diluted in HBS-EP buffer (or in HBS-EP+2 mM DTT for use in analysis with reduced targets GST-boxA(red) and HMGB1(red)), within a concentration range of 50 to 1350 nM and injected for 3 min, followed by dissociation in running buffer for 35 min. No regeneration buffer was used in the analyses. Instead, the dissociation time was enough for all binders to dissociate from the chip surfaces. HBS-EP was used as running buffer for targets boxA(disulfide) and HMGB1(disulfide) while HBS-EP+2 mM DTT was used for reduced targets GST-boxA(red) and HMGB1(red). The dissociation constants were calculated as in Example 3.
(§5) Binding analysis of mutated Z variants: The interaction of HMGB1 with ZH 01 and the 13 mutated variants thereof was analyzed in a Biacore instrument by injecting various concentrations of the Z variants over surfaces containing immobilized GST-boxA(red), HMGB1(red), boxA(disulfide) and HMGB1(disulfide), respectively. A summary of the dissociation constants from the experiments, which were obtained by using a 1:1 interaction model, is given in Table 12.
For orientation: SPR reads the build-up and loss of mass on a sensor chip optically.

Assay [8] addresses T3, HMGB1(disulfide), disulfide linked form …. The description is as above. The protocol: as §4, §5
Assay [9] has as its target T4, boxA(disulfide), disulfide linked form of A-box domain of HMGB1 (human, UniProt P09429 1-89, disulfide C23-C45).
T4 construct: also called b-boxA(disulfide)
T4 sequence: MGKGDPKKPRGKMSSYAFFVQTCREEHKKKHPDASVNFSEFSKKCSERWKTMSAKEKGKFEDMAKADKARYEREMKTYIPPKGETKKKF
The assay is described as above. The protocol: as §4, §5

Assay [10] addresses T5, GST-boxA(red), reduced form of A-box domain of HMGB1 with N-terminal GST tag (human, cysteines reduced).
T5 construct: Used biotinylated (b-GST-boxA(red)) in ELISA; also called b-GST-boxA(red)
The description is as above. The protocol: as §4, §5

T2 sequence (P02768 25-609 limits assumed): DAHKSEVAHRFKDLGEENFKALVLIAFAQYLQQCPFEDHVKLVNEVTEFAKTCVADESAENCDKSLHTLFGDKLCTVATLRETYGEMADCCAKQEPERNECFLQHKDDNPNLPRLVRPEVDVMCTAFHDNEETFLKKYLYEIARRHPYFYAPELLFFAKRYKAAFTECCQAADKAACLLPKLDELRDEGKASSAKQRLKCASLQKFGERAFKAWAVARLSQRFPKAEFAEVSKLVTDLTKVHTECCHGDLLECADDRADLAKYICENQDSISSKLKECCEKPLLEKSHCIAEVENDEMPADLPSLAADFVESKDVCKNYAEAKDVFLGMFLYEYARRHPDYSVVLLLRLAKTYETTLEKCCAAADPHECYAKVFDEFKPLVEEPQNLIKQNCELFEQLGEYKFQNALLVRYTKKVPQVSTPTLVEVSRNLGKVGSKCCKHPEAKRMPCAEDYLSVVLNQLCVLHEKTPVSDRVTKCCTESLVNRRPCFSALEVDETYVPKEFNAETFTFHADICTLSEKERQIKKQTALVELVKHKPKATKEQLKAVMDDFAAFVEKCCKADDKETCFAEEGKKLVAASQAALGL

B1: ZZA4011, Z(boxA)-L2-Z(boxB)-ABD (designed binder)
chain: VDAKYAKEDWDAFWEIIWLPNLTDAQQRAFIYKLEDDPSQSSELLSEAKKLNDSQAPKGAPGGGGSTSVDAKYAKEAWLAEQEIWQLPNLTEAQFQAFILKLIDDPSQSSELLSEAKKLNDSQAPKASGSLAEAKEAANAELDSYGVSDFYKRLIDKAKTVEGVEALKDAILAALP
notes: Heterodimer of ZH01 and ZH31 with PP013
Turning to B1, in assay [1], the “IC50 of inhibition of HMGB1 induced cell migration” value is at most 0.1 nM. The binding result in assay [2] is reported as “binds”. Besides, the Kd in [3] worked out at 110 nM; in assay [4] it was 4.2 nM. For the same molecule, the koff in assay [5] worked out at 0.0011 s⁻¹; in [6], 0.00049 s⁻¹.

B2: His6-tagged ZH 01, MGSSHHHHHHLQ-[ZH 01]-VD (designed binder)
chain: MGSSHHHHHHLQVDAKYAKEDWDAFWEIIWLPNLTDAQQRAFIYKLEDDPSQSSELLSEAKKLNDSQAPKVD
B2: the Kd came out at 12 nM in assay [7], 170 nM in [8], 380 nM in [9] and 25 nM in assay [10].

B3: His6-tagged ZH16 (ZH 01 D11A), MGSSHHHHHHLQ-[ZH16]-VD (designed binder)
chain: MGSSHHHHHHLQVDAKYAKEDWAAFWEIIWLPNLTDAQQRAFIYKLEDDPSQSSELLSEAKKLNDSQAPKVD
For B3, the Kd stood at 10 nM in assay [7], 130 nM in assay [8], 660 nM in assay [9] and 21 nM in assay [10].

B4: His6-tagged ZH14 (ZH 01 D9A), MGSSHHHHHHLQ-[ZH14]-VD (designed binder)
chain: MGSSHHHHHHLQVDAKYAKEAWDAFWEIIWLPNLTDAQQRAFIYKLEDDPSQSSELLSEAKKLNDSQAPKVD
For B4, the equilibrium dissociation constant (Kd) in assay [7] turned out to be 18 nM; in assay [8] it was 150 nM; in [9] it was 770 nM; in assay [10], 36 nM.

B5: ZZA4012, Z(boxB)-L1-Z(boxA)-ABD (designed binder)
chain: VDAKYAKEAWLAEQEIWQLPNLTEAQFQAFILKLIDDPSQSSELLSEAKKLNDSQAPKGAPGGGGSGGGGSGGGGSTSVDAKYAKEDWDAFWEIIWLPNLTDAQQRAFIYKLEDDPSQSSELLSEAKKLNDSQAPKASGSLAEAKEAANAELDSYGVSDFYKRLIDKAKTVEGVEALKDAILAALP
notes: as for B1
Take B5: the “IC50 of inhibition of HMGB1 induced cell migration” value in assay [1] was at most 0.1 nM. Besides, the binding result in assay [2] is on record as “binds”. Moreover, the figures for the Kd in assay [3] and in assay [4] were 18 nM and 3 nM, respectively. The values for the koff in assay [5] and in assay [6] were 0.00045 s⁻¹ and 0.00046 s⁻¹, respectively.

B6: ZAZ4057 (designed binder)
chain: AEAKYAKEDWDAFWEIIWLPNLTDAQQRAFIYKLEDDPSQSSELLSEAKKLNDSQAPKASGSLAEAKEAANAELDSYGVSDFYKRLIDKAKTVEGVEALKDAILAALPGTGGGGSAEAKYAKEDWDAFWEIIWLPNLTDAQQRAFIYKLEDDPSQSSELLSEAKKLNDSQAPK
Take B6: the “IC50 of inhibition of HMGB1 induced cell migration” value in assay [1] is over 1 nM. Further, the binding result in [2] was “binds”. The Kd in [3] was 31 nM; in assay [4], 21 nM. Also, the koff in assay [5] turned out to be 0.00065 s⁻¹; in assay [6], 0.0096 s⁻¹.

B7: ZZA4054, Z(boxA)-L2-Z(boxA)-ABD (designed binder)
chain: AEAKYAKEDWDAFWEIIWLPNLTDAQQRAFIYKLEDDPSQSSELLSEAKKLNDSQAPKGAPGGGGSTSAEAKYAKEDWDAFWEIIWLPNLTDAQQRAFIYKLEDDPSQSSELLSEAKKLNDSQAPKASGSLAEAKEAANAELDSYGVSDFYKRLIDKAKTVEGVEALKDAILAALP
notes: Homodimer of ZH27 with PP013
For the molecule B7, in [1], the “IC50 of inhibition of HMGB1 induced cell migration” value was over 1 nM. Besides, the binding result in [2] was “binds”. Further, the values for the Kd in assay [3] and in assay [4] were 93 nM and 150 nM, respectively. Further, the figures for the koff in assay [5] and in [6] were 0.00063 s⁻¹ and 0.013 s⁻¹, respectively.

B8: ZZA4013, Z(boxB)-L2-Z(boxA)-ABD (designed binder)
chain: VDAKYAKEAWLAEQEIWQLPNLTEAQFQAFILKLIDDPSQSSELLSEAKKLNDSQAPKGAPGGGGSTSVDAKYAKEDWDAFWEIIWLPNLTDAQQRAFIYKLEDDPSQSSELLSEAKKLNDSQAPKASGSLAEAKEAANAELDSYGVSDFYKRLIDKAKTVEGVEALKDAILAALP
notes: as for B1
As to B8, in assay [1], the “IC50 of inhibition of HMGB1 induced cell migration” value is 0.2 nM. Besides, the binding result in assay [2] is “binds”. The Kd in assay [3] was found to be 32 nM; in [4], 3.2 nM. Further, the koff in assay [5] was determined as 0.00066 s⁻¹; in [6], 0.00042 s⁻¹.

B9: ZAZ4015, Z(boxA)-ABD-L3-Z(boxB) (designed binder)
chain: VDAKYAKEDWDAFWEIIWLPNLTDAQQRAFIYKLEDDPSQSSELLSEAKKLNDSQAPKASGSLAEAKEAANAELDSYGVSDFYKRLIDKAKTVEGVEALKDAILAALPGTGGGGSVDAKYAKEAWLAEQEIWQLPNLTEAQFQAFILKLIDDPSQSSELLSEAKKLNDSQAPK
notes: Heterodimer of ZH01 and ZH31 with PP013 in the middle
On to B9, for which the “IC50 of inhibition of HMGB1 induced cell migration” value in assay [1] is over 1 nM. In [2], the binding result is given as “binds”. The dissociation constant (Kd) in assay [3] stood at 35 nM; in [4] it was 20 nM. For the same molecule, the koff in assay [5] turned out to be 0.0013 s⁻¹; in assay [6], 0.0004 s⁻¹.

The record behind these values is patent publication US20220389066A1 (Affibody, published 2022).
